According to PubChem BioAssay AID463173 (ICCB-Longwood Screening Facility, Harvard Medical School, 2010):
About 1,700 (3.3%) of roughly 52,000 compounds were called active. Cut-off read from the data, not from the text of the source: active = survival mostly below about 52% (no sharp cut-off); inactive = mostly above about 56%. The list shows a part of the results.

tested on: Wild type; test: growth inhibition of S. aureus wild type versus tarO mutant, primary screen, teichoic acid synthesis inhibitors, RN4220, OD600 (AID 463173); details: S. aureus RN4220 wild type/DeltatarO growth, OD600, 18 h, active compounds read low, screened at 18.75 µg/mL (by protocol)

SMILES | survival
CCc1ccc(-n2c(=O)c3sc4ccccc4c3n(CC(=O)NC3CCCC3)c2=O)cc1 | inactive: 82%
COc1cc(OC)c(NC(=O)CCc2nc(C3=CCN(Cc4cccc(Cl)c4)CC3)no2)cc1Cl | inactive: 84%
CCOC(=O)c1[nH]c2ccccc2c1N=CN(C)C | inactive: 104%
Nc1nc(N)c(S(=O)(=O)c2ccccc2)c(Nc2ccccc2)n1 | inactive: 72%
COc1cccc(C2C(=O)N(C3CCCCC3)CC(=O)N2CCc2ccc(OC)c(OC)c2)c1 (stereo not given) | inactive: 63%
O=C1C2C3C=CC(C3)C2C(=O)N1CCCCN1C(=O)C2C3C=CC(C3)C2C1=O (stereo not given) | inactive: 101%
CCN1CCN(C(C)C(=O)Nc2ncc(C)s2)CC1 (stereo not given) | inactive: 98%
CCc1ccc2c(c1)c(=O)c(S(=O)(=O)c1ccc(F)cc1)cn2CC(=O)Nc1ccccc1OC | inactive: 87%
Cc1ccc(NC(=O)c2oc3ccccc3c2NC(=O)C2CCCCC2)cc1 | active: 4%
COc1ccc(-c2cc(C(=O)Oc3ccc(Br)cc3)c3ccccc3n2)cc1 | inactive: 63%
CC1(C)CC2=NNC(c3ccccc3)C2CO1 (stereo not given) | inactive: 107%
CCOC(=O)C1=C(CN(CC)Cc2ccccc2)NC(=O)NC1c1ccc(OC)cc1 (stereo not given) | inactive: 65%
COC(=O)c1c(-c2ccc(Cl)cc2)noc1N1CCN(c2ccccc2F)CC1 | inactive: 75%
CCCCNC(=O)c1ccc2c(c1)NC(=O)C(C(C)C)N2 (stereo not given) | inactive: 127%
COc1ccc2c(c1)c1c(c(=O)n(-c3ccc(F)c(Cl)c3)c(=O)n1Cc1ccccc1F)n2C | inactive: 78%
COc1ccccc1NC(=O)C(=O)c1cc(C)n(-c2cc(C)cc(C)c2)c1C | inactive: 115%
N#Cc1c(-n2ncnc2-c2cccc(Cl)c2)sc2c1CCCCC2 | inactive: 58%
CCOc1cccc(-c2nc3ccccc3c(=O)o2)c1 | inactive: 62%
COc1cccc(C(=O)Nc2nc(-c3nnn(-c4cc(C)ccc4C)c3C)ns2)c1 | inactive: 72%
COc1ccc(Cl)cc1NC(=O)C(=O)NCc1ccc(Cl)cc1 | inactive: 145%
O=C1CC(c2ccccc2)Cc2[nH]c(=O)c(-c3nc(-c4ccc(Cl)c(Cl)c4)cs3)cc21 (stereo not given) | inactive: 69%
CC(C)CC(O)(CC(C)C)C(=O)NNc1ccccc1 | inactive: 110%
Cc1cc(C)c2oc(C(=O)NCCc3ccc(S(N)(=O)=O)cc3)cc(=O)c2c1 | inactive: 92%

SMILES | survival
CC(C)(C)c1ccc(C(=O)NC2=NC(c3cccc(F)c3)CC(=O)N2)cc1 (stereo not given) | inactive: 65%
COCCNS(=O)(=O)c1cc(-c2nn3c(C)nnc3c3ccccc23)ccc1C | inactive: 77%
Cc1ccc(NC(=O)N2CCN(C(=O)c3nsc4ccccc34)CC2)cc1C | active: -6%
CCS(=O)(=O)NCCc1sc2nc(-c3ccc(OC)cc3)nn2c1C | inactive: 71%
CCOC(=O)Cc1nn(CC)c(=O)c2ccccc12 | inactive: 115%
O=C(CNS(=O)(=O)c1ccc(Br)s1)N1CCN(c2ccc(F)cc2)CC1 | inactive: 67%
COc1cccc(NC(=O)CN2C=NS(=O)(=O)c3ccccc32)c1 | inactive: 127%
Cc1ccc(C(=O)c2sc(Nc3ccc(F)cc3)c(C#N)c2N)cc1 | inactive: 108%
COc1cccc(-c2nc3c(c(SCC(=O)Nc4cccc(C)c4C)n2)Cc2c(CO)cnc(C)c2O3)c1 | inactive: 113%
Cc1cccc(CCn2c(=O)c3ccccc3n(Cc3ccccc3C)c2=O)c1 | inactive: 59%
Cc1cccn2c(=O)cc(COc3ccc(NC(=O)COc4ccc(F)cc4)cc3)nc12 | inactive: 69%
COc1ccc2c(c1)c1c(c(=O)n(Cc3ccccc3)c(=O)n1CC(=O)Nc1ccccc1F)n2C | inactive: 129%
CCOc1ccccc1NC(=O)N1CC(C)Oc2ccc(Cl)cc21 (stereo not given) | inactive: 99%
CCOC(=O)c1cnc(NCc2ccc(OC)cc2OC)c2ccccc12 | inactive: 117%
Cc1ccc(OC(=O)CSc2nnc(-c3ccc4c(c3)OCO4)o2)c(C)c1 | inactive: 83%
COc1ccc(-c2nc3sc(CCNC(=O)C(C)(C)C)c(C)n3n2)cc1 | inactive: 80%
NC(=O)c1cc(N)ccc1N1CCCC1 | inactive: 104%
CCOCCCNC(=O)c1ccc(-c2nc(CS(=O)(=O)c3ccccc3)c(C)o2)cc1 | inactive: 87%
CNC(=O)C1CCCN(c2nnc(C)c3c(C)n(-c4ccccc4)nc23)C1 (stereo not given) | inactive: 72%
CC1CCC2(CC1)Nc1ccccc1S2 (stereo not given) | inactive: 110%
O=C(O)CCc1ccc(-c2ccc(Br)cc2)n1-c1ccccc1O | inactive: 50%
CCOC(=O)C1CCN(c2cc3c(cc2NC(=O)c2ccccc2Cl)n(C)c(=O)n3C)CC1 | inactive: 82%
CCOc1ccc(N2CC(c3nc4ccccc4n3CCOc3ccc(OC)cc3)CC2=O)cc1 (stereo not given) | inactive: 75%

SMILES | survival
CC(C)Cc1nn2cc(-c3cccc(Br)c3)nc2s1 | inactive: 115%
CCOc1ccc2nc(N3CCCC(C(=O)NCCc4ccc(OC)cc4OC)C3)sc2c1 (stereo not given) | inactive: 71%
CCCCN(CC)CCNC(=O)Cn1cnc2sc(C)c(S(=O)(=O)N3CCN(c4ccccc4OC)CC3)c2c1=O | inactive: 75%
CCOc1cccc2sc(N(Cc3cccnc3)C(C)=O)nc12 | inactive: 80%
O=C(Nc1ccc(F)c(Cl)c1)c1cc(S(=O)(=O)NCc2ccc3c(c2)OCO3)ccc1F | inactive: 124%
Cc1cc2nc(-c3ccc(NC(=O)c4ccc(OCC(C)C)cc4)cc3)oc2cc1C | inactive: 78%
O=C(NCCc1ccccc1)c1ccc(CSc2nc3cccnc3n2Cc2ccccc2)cc1 | inactive: 75%
CC(NC(=O)CCc1cn(Cc2ccccc2Cl)c2ccccc12)c1ccccc1 (stereo not given) | inactive: 89%
CC(C)CN(c1ccccc1)S(=O)(=O)c1nnc(NC(=O)C2CCCCC2)s1 | inactive: 91%
O=C(NCCO)C(=O)NCC(c1ccc2c(c1)OCO2)N1CCOCC1 (stereo not given) | inactive: 59%
COc1ccc(/C=C/c2nc(C#N)c(N3CCC(C(N)=O)CC3)o2)cc1OC | inactive: 125%
Cc1c(NC(=O)Nc2cccc(C(F)(F)F)c2)sc2nc3n(c(=O)c12)CCC(C)CC3 (stereo not given) | inactive: 101%
Cc1ccc(-c2nc(CS(=O)(=O)CC(=O)NC(C)CCc3ccccc3)c(C)o2)cc1 (stereo not given) | inactive: 41%
CCc1ccccc1NC(=O)Cn1nnc(C(=O)NCc2ccco2)c1N | inactive: 88%
CCOC(=O)c1nnc2c(-c3ccc(Cl)cc3)c(C)nn2c1N | inactive: 76%
O=C(CCS(=O)(=O)c1ccccc1)N(Cc1cccnc1)c1nc2c(F)cccc2s1 | inactive: 84%
COc1ccc(C(CC(=O)Nc2ccccn2)N2Cc3ccccc3C2=O)cc1OC (stereo not given) | inactive: 74%
CC(=O)Nc1ccc(NC(=O)c2csnn2)cc1 | inactive: 68%
CS(=O)(=O)N(CCc1ccccc1)CC(=O)N1CCCC1 | inactive: 106%
O=C(NCc1ccc(Cl)cc1)C(=O)NCC(c1ccc2c(c1)OCO2)N1CCOCC1 (stereo not given) | inactive: 88%
COc1cc2ccccc2cc1C(=O)N1CCN(c2nc3c(F)cccc3s2)CC1 | inactive: 76%
COCCN1C(=O)N(c2cccc(OC)c2)C(=O)C1CC(=O)Nc1ccccc1 (stereo not given) | inactive: 132%
CCCCc1nn2c(=O)cc(COC(=O)c3cccc(NC(=O)c4cccs4)c3)nc2s1 | inactive: 83%

SMILES | survival
COc1cc(C(=O)NCCOc2ccc(C)c(C)c2)cc(OC)c1OC | inactive: 116%
CN1C(=O)Cc2cc(S(=O)(=O)CCC(=O)Nc3ccc(Cl)cc3)ccc21 | inactive: 78%
COc1ccc(CCNC(=O)c2cnn(-c3cccc(C)c3)c2C2CCNCC2)cc1OC | inactive: 91%
CC(=O)c1ccc(NC(=O)c2cc3c([nH]c2=O)CC(c2ccccc2)CC3=O)cc1 (stereo not given) | inactive: 85%
CCOc1ccc2c(c1)c(=O)c(C(=O)c1ccccc1)cn2Cc1ccccc1F | inactive: 80%
O=C(c1ccccc1)N1CCC(c2nc3ccccc3o2)CC1 | inactive: 108%
COC1CCCC(C(=O)Nn2c(C3CC3)nc3ccccc3c2=O)C1 (stereo not given) | inactive: 116%
COc1ccc(OC)c(CNS(=O)(=O)c2cc(-c3onc(C)c3C)ccc2C)c1 | inactive: 64%
CCN(CC)C(=O)c1sc2c(c1C)c(=O)n(-c1ccc(C)c(C)c1)c(=O)n2CC(=O)Nc1ccc(OC)cc1OC | inactive: 73%
Cc1cc(F)ccc1NC(=O)CCS(=O)(=O)c1cc2c3c(c1)CCN3C(=O)CC2 | inactive: 75%
COc1ccc(/C=C/C(=O)Nc2cc(-c3nc4ccccc4o3)ccc2OC)cc1 | inactive: 65%
CC(=O)c1ccc(NC(=O)CSc2nnc(-c3ccncc3)n2-c2ccccc2)cc1 | inactive: 70%
CCS(=O)(=O)N1CC(=O)N(c2cc(C)cc(C)c2)C(C)(C(=O)NC2CCCCC2)C1 (stereo not given) | inactive: 73%
Cc1cc(C)n2c(Nc3ccc4c(c3)OCCO4)c(-c3ccccc3)nc2n1 | inactive: 141%
COc1ccc(N2CCN(CCCNC(=O)c3nnc(Cc4ccccc4Cl)o3)CC2)cc1 | inactive: 74%
Cc1ccc(S(=O)(=O)c2[nH]c(-c3ccccc3)nc2SC(C)C(=O)O)cc1 (stereo not given) | inactive: 82%
COc1ccc(-n2c(SC)nc3sc4c(c3c2=O)CCN(C(C)=O)C4)cc1 | inactive: 126%
FC(F)(F)c1cccc(N2CCN(c3nc4ccccc4n4cnnc34)CC2)c1 | active: 2%
Cc1ccc(NC(=O)CSc2nnc(-c3cc4occc4n3C)n2-c2ccccc2C)c(C)c1 | inactive: 79%
COc1ccc(CNC(=O)C2CCN(C(=O)c3cnn(-c4ccccc4)c3-n3cccc3)CC2)cc1 | inactive: 90%
COC(=O)c1ccccc1NC(=O)CSc1n[nH]c(C)n1 | inactive: 77%
